According to PubChem BioAssay AID493208 (National Center for Advancing Translational Sciences (NCATS), 2011):
Out of some 44,000 compounds screened, about 340 (0.77%) were called active. Another 5% or so got no clear call; they are omitted. The call rests on the fitted dose curve; in most records, active means well fitted inhibition curve with a large enough effect; inconclusive means small, poorly fitted or top-dose-only effect; inactive means flat fitted curve, though single readings scatter. The list shows a part of the results.

Assay: Acumen qHTS Assay for Inhibitors of the mTORC1 Signaling Pathway in MEF (Tsc2-/-, p53-/-) Cells: Sytravon;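 further: plate controls were DMSO for no effect and rapamycin for full effect; nearly all actives have a fitted effect of over 50% in size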
Settings: phospho-rpS6 immunofluorescence/PI, 24 h; series mostly up to 38.3 µM; activity change, negative = inhibition: at the top concentration
Procedure, shortened: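 Tsc2-/-, p53-/- MEFs (empty-vector stable line) in DMEM + 10% FBS were treated with compounds 24 h at 37 degree Celsius, fixed, and immunostained for phospho-rpS6 (Alexa-488) with propidium iodide counterstain. Laser-scanning cytometry gave % positive cells, normalized against 7.5 nM rapamycin and DMSO.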

Activity change, negative = inhibition, inactive:
O=C(Nc1cc(Cl)cc(Cl)c1)c1cc(S(=O)(=O)N2CCc3ccccc3C2)ccc1F -3.59%, COc1ccc(C(=O)Nc2c(C(=O)c3ccccc3)oc3ccccc23)cc1 -14.4%, COc1ccc(OC)c(C2C(C(=O)Nc3ccccc3OC)=C(C)Nc3c(C(=O)Nc4ccc(F)cc4)cnn32)c1 (stereo not given) -3.35%, Cc1ccc(-c2nnc3ccccc3c2C(=O)Nc2cccc(Cl)c2)cc1 -5.63%, Cn1c(=O)c(=O)n(C)c2cc(N3CCOCC3)c(NS(=O)(=O)c3ccc(F)c(Cl)c3)cc21 2.78%, COc1ccc(NC(=O)c2cc3cc(C)ccc3n2C)cc1 1.97%, CC(C)(C)OC(=O)N1CCC(c2c(C(=O)NCc3ccc4c(c3)OCO4)cnn2-c2ccccc2Cl)CC1 4.68%, COc1ccc(C(=O)Nc2nnc(S(=O)(=O)N(CC(C)C)c3ccccc3)s2)cc1 0%, COc1ccc(NC(=O)c2ccc3c(c2)nnn3C2CCCC2)cc1Cl -9.81%, Cc1ccc(Cn2c(C(=O)O)c(CNCc3cccs3)c3ccc(C)cc32)cc1 -3.46%, Cc1ccc(Cl)cc1NC(=O)c1ccc2snnc2c1 -1.22%, COc1cc(NC(=O)NCCn2nnc3cc(S(=O)(=O)N(C)C)ccc32)cc(OC)c1 5.45%, CCN(C(=O)c1cc(S(=O)(=O)N2CCc3ccccc32)cn1C)c1cccc(C)c1 7.74%, CC1=C(C(N)=O)C(c2ccc(F)cc2)n2nc(-c3ccc(N(C)C)cc3)nc2N1 (stereo not given) 6.46%, CNS(=O)(=O)c1cn(CC(=O)Nc2ccc(C)c(N(C)C)c2)cc1S(=O)(=O)NC -0.32%, Cc1ccc2c(=O)c(C(=O)c3ccc(F)cc3)cn(CC(=O)NCc3ccccc3Cl)c2n1 -19.7%, Cc1ccc(-c2nn(CC(=O)NC3CCCCC3)c3c2cnc2ccccc23)cc1 6.86%, Cc1ccc(Cl)cc1N1CCN(C(=O)c2cccn2-c2nnc(N3CCCC3)s2)CC1 2.8%, CCn1ccc2cc(S(=O)(=O)N3CCCN(C(=O)Nc4ccc(C)c(F)c4)CC3)ccc21 -0.505%, COc1ccc(CNC(=O)C(C)N2Cc3ccccc3C2=O)cc1 (stereo not given) -1.6%, CCCc1ccc(OCC(=O)Nc2sc3c(c2C(=O)OC)CCCCC3)cc1 2.16%, CC(C)CC(=O)NCC1(N(C)C)CCCCC1 1.78%, CCCCOc1ccccc1C(=O)Nc1nonc1-c1ccccc1 -22%, Cc1cccc(N(C)c2nc3ccc(C)cc3n3cnnc23)c1 -0.282%, Cc1nc(-c2ccccc2)sc1CCNC(=O)C(=O)Nc1ccc2c(c1)OCCO2 -0.573%, Cc1ccc(CNC(=O)CCCN2C(=O)c3cccnc3Oc3ccc(Cl)cc32)cc1 -0.963%, O=C(Nc1nnc(S(=O)(=O)N2CCCCCC2)s1)c1ccccc1Cl -7.48%, Cc1cccc(NC(=O)C(Cc2ccccc2)n2cccc2)c1C (stereo not given) 1.81%, CCOc1ccc(NC(=O)c2cc3c(s2)-c2ccccc2OC3)cc1 -3.03%, Cc1cccc(-c2nc(CSCC(=O)N3CCN(c4ccccc4)CC3)c(C)o2)c1 -10.7%, COc1ccccc1N1CCN(c2ccc(-c3nc(-c4ccccc4C)no3)cc2[N+](=O)[O-])CC1 6.88%, COc1ccccc1Cc1nc2ccccc2nc1SCC(=O)N1CCc2ccccc21 0.831%, CCOC(=O)c1ccc(NC(=O)CSc2nccn2-c2ccc(OCC)cc2)cc1 -16.8%, CCC(C)NC(=O)C1CCN(C(=O)c2ccc(-n3ccc4ccccc43)s2)CC1 (stereo not given) -6.73%, COc1ccccc1CCNC(=O)Cc1c(C)c2c(cc(C)c3c(C)c(C)oc32)oc1=O -3.5%, FC(F)(F)c1cccc(-c2nnn3c2nc(NC2CCCCC2)c2ccccc23)c1 -32.9%, Cc1cccc(N2CCN(C(=O)Cn3cnc4sc(C)c(S(=O)(=O)N5CCN(c6ncccn6)CC5)c4c3=O)CC2C)c1 (stereo not given) -15%, COc1cc([N+](=O)[O-])ccc1NC(=O)N1CCN(c2cc(-c3noc(C)n3)ccc2C)CC1 1.13%, CCOc1ccc(CCNC(=O)c2cc(=O)[nH]c3ccc(S(=O)(=O)N4CCCCC4)cc23)cc1OCC 12.6%, CCOc1ccccc1CNC(=O)C1CCN(S(=O)(=O)c2c(C)noc2/C=C/c2ccc(C)cc2)CC1 -1.74%, COc1cccc(NC(=O)C(=O)NCCc2csc(-c3ccc(C(F)(F)F)cc3)n2)c1 -2.26%, Cc1ccccc1OCC(=O)Nc1ccc(OCc2cc(=O)n3ccsc3n2)cc1 1.65%, CCOC(=O)c1cccc(NC(=O)N2CCC(CN3CCc4ccccc4C3)CC2)c1 -2.29%, FC(F)(F)c1cccc(N2CCN(Cc3nnc(-c4ccc5c(c4)OCO5)o3)CC2)c1 4.31%, O=C(Cc1ccc(F)cc1)NCc1nc2cccnc2n1Cc1ccc(F)cc1 -2.01%, CCOc1ccc(S(=O)(=O)c2c[nH]c3ccccc3c2=O)cc1 5.39%, COc1ccc(CCNC(=O)C2CCN(c3ncnc4c3nc3n4CCCCC3)CC2)c(OC)c1 -3.49%, Cc1ccccc1C(=O)Nc1ccc2nc(Nc3cccc(C(F)(F)F)c3)cc(C)c2c1 -29.4%, CC1CCCN(Cc2nc3c(c(=O)n(C)c(=O)n3C)n2Cc2ccc(Cl)cc2Cl)C1 (stereo not given) -3.74%, NS(=O)(=O)c1ccc(CCNC(=O)c2ccc3nc(Cc4ccccc4)oc3c2)cc1 5.79%, CC(C)(C)C1CCc2c(sc(NC(=O)CCC(=O)O)c2C(=O)Nc2ccccc2C(F)(F)F)C1 (stereo not given) -0.0356%, CCCc1cc(=O)oc2cc(C)c3c(-c4cccc(OC)c4)coc3c12 0.607%, CCOC(=O)c1cccc(NC(=O)N2CC(CC)Sc3ccccc32)c1 (stereo not given) 0.13%, COc1cccc(-c2nc(SCC(=O)NCC3CCCO3)c(-c3ccc(F)cc3)[nH]2)c1 (stereo not given) -0.806%, COc1cccc(CNC(=O)c2ccc(-c3nc(CS(=O)(=O)c4ccccc4)c(C)o3)cc2)c1 -10.9%, CN(C)CCNC(=O)CN1C(=O)CCn2nc(-c3cn(C)c4ccccc34)cc21 -4.27%, CCc1ccc(NC(=O)Cn2ncc3c(C)n(Cc4cccc(Cl)c4)c(C)c3c2=O)cc1 -1.76%, Cc1cc(C)cc(-n2nnc(-c3nsc(NC(=O)c4ccccc4Cl)n3)c2C)c1 0.298%, O=C(Nc1cccc(C(=O)N2CCN(c3ccccc3F)CC2)c1)c1nsc2ccccc12 0.125%, COC(=O)c1cc2sccc2n1Cc1nc(-c2cccc(Br)c2)oc1C -14.6%, CC(=O)Nc1ccc(S(=O)(=O)NCc2ccc(C(=O)NCc3ccc(Cl)cc3)cc2)cc1 -13%, COc1ccc(CCNC(=O)c2cnc3sc(N4CCC(C)CC4)nn3c2=O)cc1OC 5.59%, CCC1CCCCN1C(=O)CSc1n[nH]c(-c2ccccc2Cl)n1 (stereo not given) 5.22%, CCN(c1ccc(OC)cc1)S(=O)(=O)c1nnc(NC(=O)c2ccccc2C)s1 -8.52%, CCOc1ccc(NC(=O)Cn2c(=O)n(CC3CCCO3)c(=O)c3ccccc32)cc1 (stereo not given) -3.63%, CCc1ccc(-n2nc(C)c3c(C)cc(=O)n(CC(=O)NCc4ccc(C)cc4)c32)cc1 -5.15%, CCc1ccc(NC(=O)CSc2nc(C)cc(COC)c2C#N)cc1 4.23%, CC(C)CCNc1nc2c(S(=O)(=O)c3ccc(Br)cc3)nnn2c2ccsc12 -3.43%, CCc1cc2c(cc3c(=O)n(CC(=O)N4CCN(c5cc(Cl)ccc5C)CC4)nc(CC)n32)s1 -10.6%, CCCCCCc1cc2cc(-c3nnc(-c4ccc(C)cc4)o3)c(=O)oc2cc1O 9.46%, O=C(NCc1ccccc1)C1CCN(C(=O)c2cnn(-c3ccccc3)c2-n2cccc2)CC1 2.24%, C=Cc1ccc(Cn2c(=O)n(-c3ccc(C)cc3)c(=O)c3c2c2cc(OC)ccc2n3C)cc1 1.83%, CCOc1ccc2nc(N3CCCC(C(=O)NCc4ccccc4Cl)C3)sc2c1 (stereo not given) -25.8%, COc1ccc2cc(C(=O)NCc3ccc4c(c3)CCN4C(=O)c3ccc(C)cc3)[nH]c2c1 -1.11%, Cc1ccc(C)c(Cn2c(C)c(CNCc3ccc(F)cc3)c(C(=O)O)c2C)c1 0.885%, COc1ccc(CCNC(=O)CCCCCn2c(=O)[nH]c3cc(OC)c(OC)cc3c2=O)cc1OC -16.2%, CC1=C(C(=O)Nc2ccc(C)cc2C)C(c2cccn2C)n2ncnc2N1 (stereo not given) -0.512%, CC(=O)Nc1nnc(SCc2cc(=O)c3cccc(C)c3[nH]2)s1 0.0901%, Cc1ccc(C)c(N2CCN(c3nc4ccccc4c4nc(-c5cccnc5)nn34)CC2)c1 -7.66%, CCOC(=O)c1cccc(NC(c2nnc(-c3ccccc3)o2)c2ccccc2F)c1 (stereo not given) -8.16%, CC(C)C(=O)Nc1cccc(NC2=NS(=O)(=O)c3ccccc32)c1 0.065%, CCc1ccc(C2=CC(c3cccc(Br)c3)n3nnnc3N2)cc1 (stereo not given) 0.208%, Cc1ccc2c(c1)c(=O)c(C(=O)c1ccncc1)cn2CC(=O)Nc1ccccc1Cl 0%, CCc1ccc(NC(=O)Cn2c(=O)oc3cc(S(=O)(=O)NCc4ccccc4)ccc32)cc1 -0.186%, Cc1ccc(CNC(=O)C2CCCN(c3nnc(-n4c(C)ccc4C)s3)C2)cc1 (stereo not given) -2.84%, COc1ccc(NC(=O)CSc2nc(O)c(C/C=C/c3ccccc3)c(=O)[nH]2)cc1 -0.834%, CCSc1nc(-c2ccc(Cl)cc2)nc2c1Cc1c(CO)cnc(C)c1O2 3.53%, COc1ccccc1CNC(=O)CCC1N=C2c3ccccc3N=C(SCc3ccccc3Cl)N2C1=O (stereo not given) -0.699%, COc1ccc(-c2cc(C(F)(F)F)n3nc(C(=O)Nc4cccc(C(F)(F)F)c4)c(Br)c3n2)cc1 -11.7%, CCOC(=O)c1sc2ccccc2c1S(=O)(=O)NCc1ccc(F)cc1 -22.6%, CCOC(=O)c1ccc(NC(=O)CCn2cnnn2)cc1 -21.8%, CC1=C(c2ccc(Cl)cc2)S(=O)(=O)N=C1N1CCN(c2cccc(C(F)(F)F)c2)CC1 0.797%, O=C(NCc1ccccc1Cl)c1ccc(CSCc2cccc(F)c2)o1 -2.73%, Cc1ccc(NC(c2nnc(-c3ccccc3)o2)c2ccccc2F)c([N+](=O)[O-])c1 (stereo not given) 0.753%, Cc1ccc(-n2nnnc2CNC(=O)c2ccccc2F)cc1C -0.904%
